Laboratory results reported in the supplement of paper PMC4604168 (melanoma cell lines).
The list shows a part of the results. Many values rest on one well or one pass, so single values are uncertain.

What was measured:
Assay in all cases: cell count relative to DMSO control; melanoma cells; higher = more viable cells
Settings in all cases: library dose: low library concentration; 72 h
MZ2-MEL = system: MZ2-MEL
MeWo = system: MeWo
RPMI7951 = system: RPMI7951
RVH-421 = system: RVH-421
SkMel28 = system: SkMel28
SkMel2 = system: SkMel2
SkMel30 = system: SkMel30
SkMel5 = system: SkMel5
UACC257 = system: UACC257
UACC62 = system: UACC62
WM115 = system: WM115
WM1716 = system: WM1716
WM1745 = system: WM1745
WM3526 = system: WM3526
WM3619 = system: WM3619
WM451Lu = system: WM451Lu
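Also: cell number obtained by counting DAPI-stained nuclei in high-throughput microscope images with image analysis software, screen run in 1,536-well plates.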

Compound: CC(=O)c1c(C)c2cnc(Nc3ccc(N4CCNCC4)cn3)nc2n(C2CCCC2)c1=O [palbociclib] + Cc1cc(SCc2sc(-c3ccc(C(F)(F)F)c(F)c3)nc2C)ccc1OCC(=O)O [GW0742] (first compound 0.04 µM, partner dose 2 µM)
- cell count (MZ2-MEL): 88.1%
- cell count (MeWo): 71%
- cell count (RPMI7951): 77.1%
- cell count (RVH-421): 118%
- cell count (SkMel28): 75.2%
- cell count (SkMel2): 89.1%
- cell count (SkMel30): 83.9%
- cell count (SkMel5): 77.9%
- cell count (UACC257): 77.8%
- cell count (UACC62): 82.6%
- cell count (WM115): 67.9%
- cell count (WM1716): 65.9%
- cell count (WM1745): 69.3%
- cell count (WM3526): 63.6%
- cell count (WM3619): 74.3%
- cell count (WM451Lu): 69.5%

Compound: O=c1[nH]nc(Sc2ncc([N+](=O)[O-])s2)n1-c1ccc2c(c1)OCCO2 + Cc1cc(SCc2sc(-c3ccc(C(F)(F)F)c(F)c3)nc2C)ccc1OCC(=O)O [GW0742] (first compound 0.2 µM, partner dose 2 µM)
- cell count (MZ2-MEL): 114%
- cell count (MeWo): 108%
- cell count (RPMI7951): 99.3%
- cell count (RVH-421): 82.2%
- cell count (SkMel28): 97.1%
- cell count (SkMel2): 114%
- cell count (SkMel30): 95.7%
- cell count (SkMel5): 95%
- cell count (UACC257): 106%
- cell count (UACC62): 90.3%
- cell count (WM115): 92.4%
- cell count (WM1716): 128%
- cell count (WM1745): 109%
- cell count (WM3526): 113%
- cell count (WM3619): 143%
- cell count (WM451Lu): 113%

Compound: COc1ccc(C2=N[C@@H](c3ccc(Cl)cc3)[C@@H](c3ccc(Cl)cc3)N2C(=O)N2CCNC(=O)C2)c(OC(C)C)c1 [Nutlin-3] + C/C(O)=C(\C#N)C(=O)Nc1cc(Br)ccc1Br [LFM-A13] (first compound 0.1 µM, partner dose 2 µM)
- cell count (MZ2-MEL): 102%
- cell count (MeWo): 94.2%
- cell count (RPMI7951): 100%
- cell count (RVH-421): 96.9%
- cell count (SkMel28): 82.9%
- cell count (SkMel2): 97.9%
- cell count (SkMel30): 82.9%
- cell count (SkMel5): 85.3%
- cell count (UACC257): 74.8%
- cell count (UACC62): 73.1%
- cell count (WM115): 91.2%
- cell count (WM1716): 85.1%
- cell count (WM1745): 94.3%
- cell count (WM3526): 88.7%
- cell count (WM3619): 98.9%
- cell count (WM451Lu): 95.5%

Compound: Cn1c(=O)n(-c2ccc(C(C)(C)C#N)cc2)c2c3cc(-c4cnc5ccccc5c4)ccc3ncc21 + C/C(O)=C(\C#N)C(=O)Nc1cc(Br)ccc1Br [LFM-A13] (first compound 0.004 µM, partner dose 2 µM)
- cell count (MZ2-MEL): 91%
- cell count (MeWo): 95.5%
- cell count (RPMI7951): 86.1%
- cell count (RVH-421): 102%
- cell count (SkMel28): 73%
- cell count (SkMel2): 91.2%
- cell count (SkMel30): 94.1%
- cell count (SkMel5): 118%
- cell count (UACC257): 83.1%
- cell count (UACC62): 76.2%
- cell count (WM115): 92.1%
- cell count (WM1716): 84.1%
- cell count (WM1745): 90.1%
- cell count (WM3526): 82.1%
- cell count (WM3619): 82%
- cell count (WM451Lu): 92.5%

Compound: CC[C@]1(O)C[C@H]2CN(CCc3c([nH]c4ccccc34)[C@@](C(=O)OC)(c3cc4c(cc3OC)N(C=O)[C@H]3[C@@](O)(C(=O)OC)[C@H](OC(C)=O)[C@]5(CC)C=CCN6CC[C@]43[C@@H]65)C2)C1 [vincristine] + O=C(Oc1ccc([N+](=O)[O-])cc1)N1CCC(C(O)(c2ccc3c(c2)OCO3)c2ccc3c(c2)OCO3)CC1 [JZL184] (first compound 0.0001 µM, partner dose 1 µM)
- cell count (MZ2-MEL): 98.9%
- cell count (MeWo): 71.5%
- cell count (RPMI7951): 75.6%
- cell count (RVH-421): 85.4%
- cell count (SkMel28): 71.7%
- cell count (SkMel2): 100%
- cell count (SkMel30): 48.1%
- cell count (SkMel5): 82.7%
- cell count (UACC257): 55%
- cell count (UACC62): 44.9%
- cell count (WM115): 57.6%
- cell count (WM1716): 36.3%
- cell count (WM1745): 83.6%
- cell count (WM3526): 60.4%
- cell count (WM3619): 67.1%
- cell count (WM451Lu): 48.4%

Compound: Nc1nc(F)nc2c1ncn2[C@@H]1O[C@H](CO)[C@@H](O)[C@@H]1O [fludarabine] + Cc1cc(SCc2sc(-c3ccc(C(F)(F)F)c(F)c3)nc2C)ccc1OCC(=O)O [GW0742] (first compound 0.2 µM, partner dose 2 µM)
- cell count (MZ2-MEL): 99.5%
- cell count (MeWo): 34.5%
- cell count (RPMI7951): 88.8%
- cell count (RVH-421): 71.1%
- cell count (SkMel28): 88.5%
- cell count (SkMel2): 7.97%
- cell count (SkMel30): 18%
- cell count (SkMel5): 63.7%
- cell count (UACC257): 120%
- cell count (UACC62): 84.3%
- cell count (WM115): 90.3%
- cell count (WM1716): 113%
- cell count (WM1745): 104%
- cell count (WM3526): 45.6%
- cell count (WM3619): 102%
- cell count (WM451Lu): 53.2%

Compound: CN(c1ncccc1CNc1nc(Nc2ccc3c(c2)CC(=O)N3)ncc1C(F)(F)F)S(C)(=O)=O + Cc1cc(SCc2sc(-c3ccc(C(F)(F)F)c(F)c3)nc2C)ccc1OCC(=O)O [GW0742] (first compound 0.08 µM, partner dose 2 µM)
- cell count (MZ2-MEL): 94%
- cell count (MeWo): 98.9%
- cell count (RPMI7951): 94.2%
- cell count (RVH-421): 84.4%
- cell count (SkMel28): 68.8%
- cell count (SkMel2): 92%
- cell count (SkMel30): 118%
- cell count (SkMel5): 76.7%
- cell count (UACC257): 84.7%
- cell count (UACC62): 76.9%
- cell count (WM115): 83.5%
- cell count (WM1716): 96.8%
- cell count (WM1745): 86.9%
- cell count (WM3526): 106%
- cell count (WM3619): 98.4%
- cell count (WM451Lu): 94.2%

Compound: C=C(c1ccc(C(=O)O)cc1)c1cc2c(cc1C)C(C)(C)CCC2(C)C [Bexarotene] + C/C(O)=C(\C#N)C(=O)Nc1cc(Br)ccc1Br [LFM-A13] (first compound 2 µM, partner dose 2 µM)
- cell count (MZ2-MEL): 100%
- cell count (MeWo): 82%
- cell count (RPMI7951): 82.4%
- cell count (RVH-421): 105%
- cell count (SkMel28): 63.7%
- cell count (SkMel2): 91.8%
- cell count (SkMel30): 92.8%
- cell count (SkMel5): 89.5%
- cell count (UACC257): 90%
- cell count (UACC62): 90.5%
- cell count (WM115): 101%
- cell count (WM1716): 80.1%
- cell count (WM1745): 93.7%
- cell count (WM3526): 66.5%
- cell count (WM3619): 88%
- cell count (WM451Lu): 74.2%
